From US20260026499A1 (priority 2022, published 2026)

Columns and labels:
[1] = tested on: fludioxonil-resistant Fusarium pseudograminearum (FR); assay: microbe, parasite or virus in culture; settings: for EC50: Fusarium pseudograminearum, 72 h; for ATI: ZJS178 as standard reagent, FR strain
Source text: (§1) Test object: fludioxonil-resistant (FR) and fludioxonil-sensitive (FS) Fusarium pseudograminearum, isolated from the field and identified by the laboratory and preserved.
(§2) Test reagents: compound ZJS178 synthesized by Example 1; fludioxonil (provided by Zhejiang Research Institute of Chemical Industry).
(§3) Test method: refer to “Agricultural Industry Standard of the People's Republic of China NY/T 1156.2-2006” mycelial growth rate method. Five doses of each reagent were set according to the active ingredient content. The above-mentioned Fusarium pseudograminearum was inoculated on a PDA medium. When the colony grew to ⅔ of the culture dish, a fungicidal block at the edge of the colony was made by a punch with a diameter of 5 mm. The fungicidal block was transferred to the center of the pre-prepared drug-containing PDA medium using an inoculating needle, and then placed in a 25° C. incubator for 3 days. The diameter in cm of each treated colony was measured with a caliper using a cross method, and the corrected inhibition percentage was calculated. EC50 values for each reagent were then calculated using linear regression analysis between the probability of inhibition values and the log of the series of concentrations, repeated 4 times per treatment. The compound ZJS178 was set as the standard reagent, and the co-toxicity coefficient (CTC) was calculated according to the following formulas.
(§4) A CTC value of less than 80 indicates an antagonistic effect; A CTC value of 80-120 indicates an additive effect; A CTC value of greater than 120 indicates a synergistic effect.

[2] = tested on: fludioxonil-sensitive Fusarium pseudograminearum (FS); assay: microbe, parasite or virus in culture; settings: for EC50: Fusarium pseudograminearum, 72 h; for ATI: ZJS178 as standard reagent, FS strain
Source text: as §1, §2, §3, §4

SMILES | EC50 [1] [µg/mL] | ATI [1] | EC50 [2] [µg/mL] | ATI [2]
N#Cc1c[nH]cc1-c1cccc2c1OC(F)(F)O2 [Fludioxonil (B), 4-(2,2-difluoro-1,3-benzodioxol-4-yl) pyrrole-3-carbonitrile, reference compound] | 18 | 0.21 | 0.0426 | 75.82
CCOC(=O)/C(C#N)=C(\N)c1ccc(N(C)CC)cc1 [ZJS178 (A), ethyl 2-cyano-3-amino-3-[4-(N-ethyl-N-methylamino)phenyl]acrylate] | 0.038 | 100.00 | 0.0323 | 100.00
